Measured values as given in PubChem BioAssay AID1347165 (National Center for Advancing Translational Sciences (NCATS), 2019).
Hit rate of the full screen: of about 220,000 compounds, about 5,700 (2.6%) were called active. This list was built around the results that the source calls inconclusive (neither active nor inactive); the mix of calls is not that of the screen. Calls follow the shape of the dose curve; as a rule, active = well fitted inhibition curve with a large enough effect; inconclusive = small, poorly fitted or top-dose-only effect; inactive = no such curve, though single readings can be large or run the other way. Potencies beside an inconclusive call are fits to weak or partial responses and may not hold up.

target: Lysine-specific demethylase 5B (Homo sapiens) (UniProt Q9UGL1); assay: Primary screen for KDM5B Histone Demethylases FDH-coupled qHTS; conditions: FDH-coupled NADH fluorescence (FDH is formaldehyde dehydrogenase); activity change, negative = inhibition: at 57.7 µM (top of the series) unless noted; also: nearly all actives have a fitted effect of over 70% in size; as to activity change, negative = inhibition: 0% is about no effect
How it was run: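 qHTS format, multiple compound concentrations. Buffer 50 mM HEPES pH 7.5/0.01% Tween-20; 200 nM KDM5BΔAP final; 10 min compound preincubation; substrate-mix levels 12.5 µM peptide, 25 µM α-KG, 0.25 mM NAD⁺; 30 min RT; ΔRFU.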
Potency is read from the fitted curve at half-maximal effect; tags tell the direction and shape of the fitted curve.

UniProt Q9UGL1, sequence (Q9UGL1 whole entry, looked up): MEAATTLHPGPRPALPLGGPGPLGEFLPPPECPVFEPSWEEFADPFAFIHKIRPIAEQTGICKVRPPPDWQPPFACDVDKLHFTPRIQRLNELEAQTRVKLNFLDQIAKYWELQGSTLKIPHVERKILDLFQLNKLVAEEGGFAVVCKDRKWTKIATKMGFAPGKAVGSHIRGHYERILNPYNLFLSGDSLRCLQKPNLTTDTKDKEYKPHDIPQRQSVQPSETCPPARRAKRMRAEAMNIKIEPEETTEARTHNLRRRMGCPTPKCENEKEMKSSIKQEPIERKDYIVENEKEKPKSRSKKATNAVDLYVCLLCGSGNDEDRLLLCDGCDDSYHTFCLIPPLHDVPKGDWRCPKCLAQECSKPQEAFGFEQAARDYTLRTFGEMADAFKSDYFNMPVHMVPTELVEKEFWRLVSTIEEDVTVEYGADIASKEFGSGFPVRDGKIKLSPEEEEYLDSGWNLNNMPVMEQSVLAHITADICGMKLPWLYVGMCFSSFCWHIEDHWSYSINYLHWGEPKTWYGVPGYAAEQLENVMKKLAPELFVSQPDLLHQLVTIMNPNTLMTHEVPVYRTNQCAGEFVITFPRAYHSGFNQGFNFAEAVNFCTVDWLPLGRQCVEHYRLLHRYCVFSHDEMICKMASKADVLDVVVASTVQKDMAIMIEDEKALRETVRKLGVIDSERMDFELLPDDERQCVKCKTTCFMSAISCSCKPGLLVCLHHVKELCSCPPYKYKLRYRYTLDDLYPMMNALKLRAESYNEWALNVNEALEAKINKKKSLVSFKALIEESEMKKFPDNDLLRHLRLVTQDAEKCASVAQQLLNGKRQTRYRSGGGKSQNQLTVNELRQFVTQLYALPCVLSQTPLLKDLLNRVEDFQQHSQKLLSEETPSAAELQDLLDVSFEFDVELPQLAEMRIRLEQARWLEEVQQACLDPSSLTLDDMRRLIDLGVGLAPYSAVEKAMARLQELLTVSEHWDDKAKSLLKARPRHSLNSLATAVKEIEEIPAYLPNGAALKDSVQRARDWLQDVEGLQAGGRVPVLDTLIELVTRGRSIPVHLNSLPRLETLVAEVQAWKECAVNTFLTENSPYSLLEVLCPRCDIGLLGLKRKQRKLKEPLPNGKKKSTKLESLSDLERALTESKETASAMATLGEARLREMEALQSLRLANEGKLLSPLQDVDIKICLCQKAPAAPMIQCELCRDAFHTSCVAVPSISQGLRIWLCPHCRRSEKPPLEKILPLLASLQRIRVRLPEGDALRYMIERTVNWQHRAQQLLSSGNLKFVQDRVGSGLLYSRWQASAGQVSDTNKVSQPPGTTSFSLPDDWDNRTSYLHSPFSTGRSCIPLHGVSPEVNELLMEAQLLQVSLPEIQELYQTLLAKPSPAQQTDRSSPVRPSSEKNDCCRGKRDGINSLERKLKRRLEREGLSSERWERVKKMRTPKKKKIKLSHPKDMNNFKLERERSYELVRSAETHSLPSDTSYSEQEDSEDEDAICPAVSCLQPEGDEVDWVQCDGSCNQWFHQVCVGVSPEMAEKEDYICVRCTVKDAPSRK

SMILES | Potency | activity change, negative = inhibition
c1coc(CNc2ccc3c(c2)ncn3C2CCCCC2)c1 | inconclusive: 22.4 µM [inhibitor, partial curve, poor fit] | 
CC(C)(C)c1nc(C(=O)N2CCN(c3ncccn3)CC2)n2ccccc12 | active: 79.4 µM | 
CCOc1cccc(Cn2c(=O)c3sccc3n(CC(=O)N(C)C3CCCCC3)c2=O)c1 | inconclusive: 35.5 µM [inhibitor, single point] | 
CCOc1ccccc1NC(=O)c1nc(-c2ccc(OC)cc2)n(-c2ccccc2)n1 | inconclusive: 39.8 µM [inhibitor, single point] | 
Clc1ccc(-n2nnnc2-c2cnc3ccc(Cl)cc3c2-c2ccccc2)cc1 | inconclusive: 28.2 µM [inhibitor, single point] | 
COc1cc2c(cc1NC(=O)CCCOc1ccccc1)oc1ccccc12 | inconclusive: 39.8 µM [inhibitor, single point] | 
CSc1ccc(-c2ccc(C=O)cc2)cc1 | active: 10 µM | 
CCOc1cc(CNCC2CCCO2)ccc1OCc1ccccc1 (configuration not stated) | inconclusive: 39.8 µM [inhibitor, single point] | 
COC(=O)C(C)N1C(=O)S/C(=C/c2ccc(Sc3ccccc3)cc2)C1=O (configuration not stated) | inconclusive: 14.1 µM [inhibitor, partial curve, poor fit] | 
COc1cccc2c1cc1c(=O)n(CC(=O)NCCCN3CCN(C)CC3)nc(C)n12 | inconclusive: 28.2 µM [inhibitor, partial curve, poor fit] | 
CNC(=O)[C@@H]1CN(C(=O)Cn2cc(C)cn2)C[C@H]1COC |  | inactive: -8.31%
CN(CCCc1[nH]nc(N)c1C#N)c1nc(-c2ccccc2)nc2ccccc12 |  | inactive: 6.02%
Cc1cn2c(=O)cc(COC(=O)c3ccc(NC(=O)c4ccc(C(C)(C)C)cc4)cc3)nc2s1 | inconclusive: 31.6 µM [inhibitor, partial curve, poor fit] | 
COc1ccc(CN2CC(C)(NC(C)=O)C2)c2ccccc12 | inconclusive: 28.2 µM [inhibitor, partial curve] | 
CCNC(=O)NC[C@@H]1C=C(C)[C@H](Cc2nnc(-c3ccccc3F)o2)C[C@H]1C(C)C | inconclusive: 31.6 µM [inhibitor, single point] | 
NC(CO)c1ccc2ccccc2c1 (configuration not stated) | inconclusive: 20 µM [inhibitor, partial curve, poor fit] | 
CCOC(=O)c1ccc(NC(=O)C(CC)Sc2nncn3c2cc2oc(C)cc23)cc1 (configuration not stated) | inconclusive: 22.4 µM [inhibitor, single point] | 
Cc1ccccc1C(=O)NC1CCCN(c2cc(-c3ccc(F)cc3)[nH]n2)C1 (configuration not stated) |  | inactive: -1.91%
Cc1noc(C)c1[S+](=O)([O-])N1CCc2nc(-c3ccc(Cl)cc3)nc(-c3ccccc3)c2C1 |  | inactive: 2.64%
COc1ccc(C(=O)Nc2ccc3nc(C)c(C)nc3c2)cc1 | inconclusive: 20 µM [inhibitor, partial curve, poor fit] | 
CC1CCC(NC(=O)CN2CCC(c3nc4ccccc4o3)CC2)CC1 (configuration not stated) |  | inactive: -20.4%

SMILES | Potency | activity change, negative = inhibition
O=C(C[C@@H]1O[C@H](CNC(=O)c2ccco2)[C@@H](O)[C@H]1O)NCc1ccc(F)cc1 | inconclusive: 31.6 µM [inhibitor, single point] | 
Cc1ccccc1Nc1nnc(-c2ccc(C)c(S(=O)(=O)NCC3CCCO3)c2)c2ccccc12 (configuration not stated) | inconclusive: 44.7 µM [inhibitor, single point] | 
CCOC(=O)c1c(-c2ccc(OC)cc2)oc2ccc(OCc3ccc(F)cc3F)cc12 | inconclusive: 15.8 µM [inhibitor, partial curve, poor fit] | 
COc1ccc(-c2cn3cc(C(=O)NCCO)nc3c(=O)n2CC2CC2)c(F)c1 |  | inactive: 4.98%
Cc1ccc(-c2ccc3nnc(CNC(=O)c4ccco4)n3n2)cc1C | active: 22.4 µM | 
O=C(NCc1ccco1)c1cc(-c2cccnc2)nc2ccc(Cl)cc12 | inconclusive: 39.8 µM [inhibitor, single point] | 
CCOc1ccc(/C=C/c2nc(C#N)c(NCc3ccco3)o2)cc1 |  | inactive: -1.32%
COc1ccc(C(CC(=O)N2CCC(C(N)=O)CC2)c2ccccc2)cc1 (configuration not stated) |  | inactive: 19.7%
Cc1nc2sccn2c(=O)c1S(=O)(=O)Nc1cccc(Cl)c1C | inconclusive: 35.5 µM [inhibitor, single point] | 
CC(=O)c1ccc(N2CCN(S(=O)(=O)c3ccc(-c4cnc(C5CC5)o4)cc3)CC2)cc1 | inconclusive: 1.12 µM [inhibitor, partial curve, poor fit] | 
Cc1ccc(OCC(=O)Nc2ccc(C(=O)OCc3cc(=O)n4ccsc4n3)cc2)cc1C | inconclusive: 28.2 µM [inhibitor, partial curve, poor fit] | 
N#Cc1nc(-c2ccco2)oc1NCc1ccccc1 | inconclusive: 22.4 µM [inhibitor, partial curve, poor fit] | 
CCOc1ccc(Nc2ncnc3onc(-c4ccc(Cl)cc4)c23)cc1 | inconclusive: 39.8 µM [inhibitor, single point] | 
COc1ccc(S(=O)(=O)c2cc3cc(C)ccc3oc2=O)cc1 |  | inactive: 7.77%
O=C(CC1(O)C(=O)N(CN2CCOCC2)c2ccccc21)c1ccc2c(c1)CCCC2 (configuration not stated) |  | inactive: 59.6%
COc1ccc(NC(=O)c2cc3c(s2)CN(C2CCCC2)C3)c(C)c1 | inconclusive: 14.1 µM [inhibitor, partial curve] | 
CCCc1noc(-c2ccn3c(CNC(=O)c4ccc(N(C)C)cc4)nnc3c2)n1 | inconclusive: 28.2 µM [inhibitor, partial curve, poor fit] | 
O=C(O)c1ccc(N/N=C/c2c[nH]c3ccccc23)cc1 | inconclusive: 28.2 µM [inhibitor, partial curve, poor fit] | 
CCOC(=O)c1ccc(NC(=O)C2CCCN(c3cnccn3)C2)cc1 (configuration not stated) | inconclusive: 1.58 µM [inhibitor, full curve, poor fit] | 
CCOC(=O)C1=C(CNCc2ccc(Cl)cc2)NC(=O)NC1c1ccccc1 (configuration not stated) |  | inconclusive: -35.2% [inhibitor]
Cc1c(-c2ccccc2)[nH]c2c(CNC(=O)CCc3nncn3C)cc(Cl)cc12 | inconclusive: 31.6 µM [inhibitor, partial curve, poor fit] | 
